From PubChem BioAssay AID504845 (National Center for Advancing Translational Sciences (NCATS), 2011)
Out of some 390,000 compounds screened, about 150 (0.038%) were called active. Inconclusive means that the source gave no clear call. Such entries were picked first, then a sample of the others. Calls come from the whole dose curve; as a rule, active = well fitted inhibition curve with a large enough effect; inconclusive = small, poorly fitted or top-dose-only effect; inactive = no such curve, though single readings can be large or run the other way. Potencies of inconclusive entries are doubtful fits and often do not repeat.

These compounds were tested against Regulator of G-protein signaling 4 (Homo sapiens) (UniProt P49798) (assay: Inhibitors of Regulator of G Protein Signaling (RGS) 4: qHTS). Conditions: Transcreener GDP fluorescence polarization, RGS4-accelerated GTP hydrolysis; series mostly up to 114 µM; activity change, negative = inhibition: at the top concentration.
In short: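 MLSMR compounds (23 nl, pin-transferred) preincubated 10 min at room temperature with a 500nM (2x) first reagent, then RGS4 at 900nM (2x) plus Transcreener GDP mix added; fluorescence polarization (620/688 nm) read before and after 90 min at 30 °C.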
% is set by controls: 0 for no effect and ±100 for the full control effect; potency is the fitted concentration of half-maximal effect; tags give direction and shape of the fitted curve.
Note: nearly all actives have a fitted effect of over 75% in size.

Sequence of UniProt P49798 (P49798 whole entry, looked up): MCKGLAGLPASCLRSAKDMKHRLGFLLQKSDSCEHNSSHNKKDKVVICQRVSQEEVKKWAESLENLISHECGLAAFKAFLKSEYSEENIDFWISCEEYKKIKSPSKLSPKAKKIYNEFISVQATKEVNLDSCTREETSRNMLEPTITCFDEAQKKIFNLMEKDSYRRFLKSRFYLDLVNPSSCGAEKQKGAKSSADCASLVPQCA

Compound | Potency | activity change, negative = inhibition
CCCCCCC(=O)Nc1nc(C)c(-c2csc(Nc3cc(Cl)ccc3OC)n2)s1 | inconclusive: 89.1 µM [inhibitor, partial curve, poor fit] | 
O=C1C=CC(=C(c2ccc(O)cc2)c2ccc(O)cc2)C=C1 | inconclusive: 89.1 µM [inhibitor, single point] | 
Cn1cccc1C(=O)OCC(=O)Nc1sccc1C#N | inconclusive: 79.4 µM [inhibitor, partial curve, poor fit] | 
CNC(=O)CN(C1CCCCC1)S(=O)(=O)c1ccc(F)cc1 |  | inactive: -13.7% [at 11.4 µM]
CC(C)CN1C(=O)C(=O)N(CC(=O)NCc2ccc3c(c2)OCO3)C1=O |  | inactive: 4.53%
O=c1c2ccccc2nc(/C=C/c2ccc([N+](=O)[O-])cc2)n1CCCO | inconclusive: 70.8 µM [inhibitor, partial curve, poor fit] | 
CCN(CC)S(=O)(=O)c1ccc2c(c1)N(CC(=O)Nc1ccc(F)cc1F)C(=O)C1CCCN21 (centres undefined) |  | inactive: 6.23%
CCOc1ccc2nc(Cl)c(C3CC(c4ccc(C)cc4)=NN3C(=O)CCCC(=O)O)cc2c1 (centres undefined) | inconclusive: 89.1 µM [inhibitor, single point] | 
CN(C)C(=O)CSc1cccc2cccnc12 |  | inactive: -49%
COC(=O)c1ccc(CSc2nc3ccc(Cl)cc3[nH]2)o1 | inconclusive: 100 µM [inhibitor, single point] | 
CC(N=Cc1cccc(O)c1O)c1ccccc1 (centres undefined) | inconclusive: 100 µM [inhibitor, partial curve, poor fit] | 
CC1CCC(NC(=O)CNC(=O)Cc2cccc3ccccc23)CC1 (centres undefined) | inconclusive: 31.6 µM [inhibitor, full curve, poor fit] | 
CCOC(=O)c1ccc(CN(Cc2ccc(F)cc2)S(=O)(=O)c2ccc(F)c(C(=O)Nc3cc(Cl)ccc3OC)c2)cc1 |  | inactive: 19.4%
Cc1ccccc1CNC(=O)c1ccccc1C |  | inactive: -13.5%
O=C(O)C1CN(c2ncccc2[N+](=O)[O-])C1 | inconclusive: 50.1 µM [inhibitor, partial curve, poor fit] | 
O=c1oc2ccccc2c(N2CCCCC2)c1CN1CCCCC1 |  | inactive: -19.9%
CN(C)CCCSc1ccccc1NC(=O)/C=C/c1ccccc1 | inconclusive: 18.9 µM [inhibitor, partial curve, poor fit] | 
CC(C)OC(=O)c1c(NC(=O)c2cccc(C(F)(F)F)c2)sc2c1CCCC2 |  | inactive: -20%
Cc1ccc(/C=N/NC(=O)CN(Cc2ccccc2)S(=O)(=O)c2ccc3c(c2)OCCO3)cc1 |  | inactive: 17%
CC1=NNC(=O)/C1=C\c1cn(-c2ccccc2)nc1-c1ccc(Cl)cc1 | inconclusive: 89.1 µM [inhibitor, partial curve, poor fit] | 
COc1ccc(C(=O)O)nc1C |  | inactive: 9.72%
C1=C(c2ccccc2)CCN(c2nc3ccccc3n3cnnc23)C1 | inconclusive: 79.4 µM [inhibitor, partial curve, poor fit] | 
O=C(O)c1ccc(/C=C2\SC(=S)N(Nc3ccccc3)C2=O)cc1 | inconclusive: 50.1 µM [inhibitor, partial curve, poor fit] | 

Compound | Potency | activity change, negative = inhibition
O=[N+]([O-])c1ccc(-n2nnnc2-c2ccccc2)cc1 | inconclusive: 56.2 µM [inhibitor, partial curve, poor fit] | 
O=C(Cc1cccs1)Nc1nnc(Cc2ccccc2)s1 | inconclusive: 79.4 µM [inhibitor, partial curve, poor fit] | 
COc1ccc(C2Nc3ccccc3-c3cc(C)nn32)c(OC)c1 (centres undefined) |  | inactive: -4.71%
COc1ccc(NC(=O)c2cc([N+](=O)[O-])ccc2NC(=O)CNCc2ccccn2)c(OC)c1 | inconclusive: 35.5 µM [inhibitor, partial curve, poor fit] | 
COc1ccc(NC(=S)NCc2ccccc2Cl)c(OC)c1 |  | inactive: 10.1%
CCCCN1C(=O)C(O)(CC(=O)c2ccc(CC)cc2)c2cc(Br)ccc21 (centres undefined) |  | inactive: 8.89%
COc1cccc(C(=O)Nc2nc(-c3nnn(-c4ccccc4C(F)(F)F)c3C)ns2)c1 |  | inactive: 7.65%
O=C(Nc1ccccc1)NC1CCCc2ccccc21 (centres undefined) |  | inactive: 24.4%
COC(=O)[C@H]1[C@H]2C[C@@H]3c4[nH]c5cc(OC)ccc5c4CCN3C[C@H]2C[C@@H](OC(=O)c2cc(OC)c(OC)c(OC)c2)[C@@H]1OC | inconclusive: 18.9 µM [inhibitor, partial curve] | 
CN(C(=O)COC(=O)CCc1c[nH]c2ccccc12)C(c1ccccc1)c1ccccc1 | inconclusive: 44.7 µM [inhibitor, partial curve, poor fit] | 
COC(=O)C(CC(=O)c1ccc(Br)cc1)n1nc(C)cc1C (centres undefined) | inconclusive: 89.1 µM [inhibitor, partial curve, poor fit] | 
COC(=O)Cc1c[nH]c2cccc(OCC(O)CN(Cc3ccc([N+](=O)[O-])cc3)C(C)(C)C)c12 (centres undefined) |  | inactive: -7.75%
Cc1ccc2cccc(SCC(=O)N3CCOCC3)c2n1 |  | inactive: 19.7%
OC(COCCOc1ccc(Br)cc1)CN1CCN(Cc2ccccc2)CC1 (centres undefined) | inconclusive: 70.8 µM [inhibitor, partial curve, poor fit] | 
COc1ccc(NC(=O)CCc2c(C)nn(-c3ccc(N4CCCC4)nn3)c2C)cc1Cl |  | inactive: -11.2%
COC(=O)c1cc(-c2ccc(Cl)cc2)c2c(=O)[nH]c(=O)n(C)c2n1 |  | inactive: 1.3%
O=C(/C=C/c1ccco1)Nc1ccc(-c2nc3ccccc3[nH]2)cc1 | inconclusive: 44.7 µM [inhibitor, partial curve, poor fit] | 
Cn1nc(C(=O)NCc2ccccn2)c2ccccc2c1=O |  | inactive: 17.8%
CCOC(=O)N1CCc2c(sc(NCc3cc(OC)ccc3OC)c2C(=O)Nc2cc(OC)ccc2OC)C1 | inconclusive: 17.8 µM [inhibitor, full curve, poor fit] | 
Cc1nc(C)c(C(=O)Nc2nc3c(C)cccc3s2)o1 | inconclusive: 79.4 µM [inhibitor, partial curve, poor fit] | 
COc1cccc2cc3c(=O)n(-c4ccccc4)nc-3oc12 | inconclusive: 50.1 µM [inhibitor, partial curve, poor fit] | 
O=c1c2ccccc2nnn1-c1ccc(Br)cc1 |  | inactive: -7.78%
Cc1cccc(NS(=O)(=O)c2cccc(C(=O)NCC(C)(C)N3CCOCC3)c2)c1 | inconclusive: 89.1 µM [inhibitor, single point] | 

Compound | Potency | activity change, negative = inhibition
O=C(O)CC(c1cccc(Cl)c1)n1cccc1 (centres undefined) | inconclusive: 100 µM [inhibitor, single point] | 
Cc1ccc(CNC(=S)NCc2ccncc2)cc1 | inconclusive: 17.8 µM [inhibitor, full curve, poor fit] | 
S=c1[nH]cc(-c2ccccc2)n1-c1ccccc1Cl | inconclusive: 56.2 µM [inhibitor, partial curve, poor fit] | 
C[C@H](CO)N1C[C@H](C)[C@@H](CN(C)S(C)(=O)=O)Oc2ccc(NS(=O)(=O)c3cn(C)cn3)cc2C1=O |  | inactive: 13.3%
O=C(CCCCCn1c(=S)[nH]c2cc3c(cc2c1=O)OCO3)N1CCN(C(=O)c2ccco2)CC1 | inconclusive: 39.8 µM [inhibitor, partial curve, poor fit] | 
O=C(CSc1nc2c(c(C(F)(F)F)n1)CCc1ccccc1-2)NCc1ccccc1 | inconclusive: 79.4 µM [inhibitor, single point] | 
Cc1ccc(SC(CC(=O)c2ccc(C(C)(C)C)cc2)C(=O)O)cc1 (centres undefined) | inconclusive: 50.1 µM [inhibitor, partial curve, poor fit] | 
Cc1ccc2nc(-c3ccccc3N)[nH]c2c1 | inconclusive: 50.1 µM [inhibitor, partial curve, poor fit] | 
Cc1ccc(CSC2=Nc3ccccc3C3=NC(CCC(=O)NCc4cccs4)C(=O)N23)cc1 (centres undefined) | inconclusive: 89.1 µM [inhibitor, single point] | 
CC(=O)Nc1ccc(C(=O)CSc2nnc3scc(-c4ccccc4)n23)cc1 | inconclusive: 17.8 µM [inhibitor, full curve, poor fit] | 
CCc1ccc(C2CC(c3ccc(C)cc3)n3nc(N)nc3N2)cc1 (centres undefined) | inconclusive: 79.4 µM [inhibitor, partial curve, poor fit] | 
CCn1ccc(C(=O)Nc2ccc(Cl)cn2)n1 |  | inactive: -3.76%
O=C(NCc1ccccn1)C1CC(c2ccccc2O)=NO1 (centres undefined) |  | inactive: -2.43%
Cc1oc(=O)c(NC(=O)c2cccc(Cl)c2)cc1C(=O)c1ccccc1 | inconclusive: 56.2 µM [inhibitor, partial curve, poor fit] | 
COc1ccc(C(CNC(=O)C(C)(C)Oc2ccc(Cl)cc2)N2CCCCC2)cc1 (centres undefined) |  | inactive: 10.1%
COc1cc2c(-c3ccccc3O)nc3c(c(C)nn3-c3ccccc3)c2cc1OC | inactive | 
Cc1cc(N2CCOCC2)nc(NCc2ccccc2)n1 |  | inactive: 5.42%
Oc1ccc(Br)cc1C1C=C(c2ccc3c(c2)OCO3)NC(c2ccc(Cl)cc2)N1 (centres undefined) |  | inactive: -36%
COc1ccc(-n2nnnc2Sc2ccc(S(=O)(=O)N3CCOCC3)cn2)cc1 | inconclusive: 70.8 µM [inhibitor, single point] | 
O=C1c2ccccc2C(=O)N1CCc1ccccc1 | inconclusive: 44.7 µM [inhibitor, partial curve, poor fit] | 
COc1cccc(/C=N/NC(=O)C(C)n2nnc3ccccc32)c1 (centres undefined) | inconclusive: 25.1 µM [inhibitor, full curve, poor fit] | 
CCOC(=O)N1CCN(Cc2ccccc2Cl)CC1 |  | inactive: 1.87%
CCOc1ccc(C(=O)c2cn(CC(=O)Nc3ccc4c(c3)OCCO4)c3ccc(OC)cc3c2=O)cc1 | inconclusive: 28.2 µM [inhibitor, full curve, poor fit] | 
